Measured values taken from the RNAGym collection of RNA variant scans (doi:10.1093/nar/gkz1192).
The source gives no read counts; variants with many changes may rest on few reads.

B1: CPEB3 Ribozyme (parent)
chain: UAACAGGGGGCCACAGCAGAAGCGUUCACGUCGCAGCCCCUGUCAGAUUCUGGUGAAUCUGCGAAUUCUGCUGUAUAUCUC

Variants of: B1
Assay: self-cleavage, relative activity (ratio to wild type); higher = more cleavage; in vitro, sequencing
In short: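 For each CPEB3 ribozyme variant, relative activity is its cleaved/total read fraction divided by the unmutated ribozyme's. Barcoded error-prone PCR libraries were transcribed by T7 RNA polymerase (5 hours, 37°C) and held in DNase I for 15 min before an EDTA stop, with cleavage occurring throughout. Template-switching reverse transcription and Illumina sequencing were used to read the RNAs. A 5-read minimum applied, and results are the mean of three batches.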

Variant | self-cleavage
A2U A56G U69A | 0.28
A2U G19C A28U G52A U58C C79A | 0.22
A2U U26A A45G | 0.49
A2G G7C U31C A35C C62A U74A | 0.52
A2G G8A C32U U51C U66C U67A | 0.11
A2U A20G A21G U31C U41A | 0.37
A2U G6A C11A U41C A64G U69C | 0.21
A2G U41C C44U U72C U80C | 0.58
A2U A56C U66A | 0.15
A2U G7U U48A U72C | 0.17
A2G U25A U31G U54A U60A | 0.47
A2U A15G G46A U54C | 0.35
A2U G10A U43C A57G G70A | 0.07
A2U A3C U43A U72C | 1.11
A2U G16C A18G A45G U60C U66G | 0.27
A2G U49C A57U | 0.89
A2G U26A C40U U48C G52A A64G U74C | 0.13
A2U C11A A28G U41C | 0.31
A2U C23U U74A U76C | 0.37
A2U A35G U67C | 0.58
A2U A65G U67C C68A A77U | 0.22
A2U G9A C14U | 0.45
A2U A21G A35G A77U | 1.16
A2U A5U A64G U74C | 1.36

Variant | self-cleavage
A2U G9A A18U U54G A56U A75U | 0.05
A2G U31C U72A | 0.36
A2G U26C U69C U76C A77U | 0.34
A2G U25C U43C | 0.11
A2G C29U U43C U69C C71U U72A U80C | 0.17
A2G C23A A28G U41A U60A U76C | 0.05
A2U G8C U43A G61A | 0.2
A2U U26C U49C A75U | 0.35
A2G G36A U60A U74C | 0.25
A2G U43A U48C U51C A57G | 1.13
A2G G10A U26A A28G U66C | 0.08
A2G G8U U58C | 0.19
A2U A18G U43A | 0.83
A2U U41A U49C U66A U76G | 0.13
A2G U25A U41C A47U | 0.23
A2G U51C U72C | 0.5
A2G U26C G42C | 0.1
A2G G6C G52A | 0.11
A2G U25C A28G U41C | 0.2
A2U A15G A18U A21G U54C A57U U69C | 0.07
A2U A3G U54C A57G | 0.78
A2G U41C U58G | 0.23
A2U A13U A20U G33U U48C U49C A65G | 0.08
A2U A5G A15G U25G C27U G33C U76C | 0.26

Variant | self-cleavage
A2U A21G A28G G33A U43C | 0.22
A2U C14G C17U A21U U48C U60C | 0.05
A2U A13U G33A U41C A77G | 0.25
A2U U41A A47G U78C | 0.18
A2U A5G A20G A64G | 0.18
A2G U54C C68A U69A | 0.13
A2G U26A U49C | 0.08
A2G U25C A28C G36A A75U | 0.22
A2U C17U A28G G33C | 0.28
A2U A5U U60C | 0.32
A2U C14U G33A C39G C40G U41C A64U | 0.14
A2U A20G A28G A35G U48A A64G | 0.05
A2U G9A A28U U43C U51C | 0.06
A2G G19A C37G U43A A47G U51C | 0.22
A2U A3G A28U U41G U54C U69A | 0.25
A2U C32U U43G U48C U69C | 0.12
A2G U43A A64G U69A | 0.28
A2U A3U U25A U69A U76C | 0.23
A2G G9A U25C G36A | 0.06
A2G U41C C62U U69A | 0.2
A2G C38U U54G C68U A77G | 0.31
A2U U25C G33A A45U U54C | 0.24
A2U A5U A21G A47C U58C U72C | 0.19
A2U A18G U26C | 0.07

Variant | self-cleavage
A2G C23U U41C A64U | 0.34
A2G C29A U51C U72G | 0.11
A2G G8A U25C U31A | 0.1
A2G C12U A45G | 0.75
A2G G9A C23G U66C U72C U76A | 0.04
A2U A18U A47G U54C U58C C71A | 0
A2U U25C U43G A65G U66A U69C U78C | 0.04
A2U A35U A64G | 0.38
A2G C23U C40A A65G | 0.04
A2G G7U G19U A21G U49C U76A | 0.14
A2G G30A A45U A75C | 0.21
A2G U25C A35G U54A | 0.7
A2U A3G A5G A13G C23U U69C U78C | 0.43
A2G G36A U41C | 0.5
A2G U41G A65G | 0.34
A2G U26A U31C U78C | 0.15
A2G G9A A20G U54G A64G A65G | 0.05
A2G G6A A21G C27A A64U U69C U76C | 0.09
A2U U26C U31C A35U U43C A57G G73A | 0.29
A2U C34U U49C A65G | 0.07
A2U A21G A45G A65U | 0.25
A2U G6A U25C C34U U41C | 0.21
A2U A18U U43C U51A | 0.06
A2G G10A A18C | 0.1

Variant | self-cleavage
A2G G22U U41A G63A A64G A75C | 0.15
A2U A15G U41C | 0.84
A2G G10A U43A U72A A77U | 0.05
A2G U43C U80C | 0.62
A2G U25A U26A C37A U49C | 0.04
A2U U41C G42C U51A A64G | 0.16
A2U U31A U49C U51C | 0.21
A2U C17U A20G | 0.51
A2G U31C U54A A65G U72C | 0.16
A2G U26C A77U U78C | 0.3
A2G C37U A57G U67C | 0.11
A2G C14G A21G U66C C71A U76A | 0.08
A2G G8C A21G G22A C23U U48C | 0.05
A2U A20G C23U U26A U67C C71U | 0.21
A2U U25C G33A | 0.07
A2G G36U U49C G53C | 0.18
A2G G10C G19U U78C | 0.07
A2U A15G A28G U43A A56G U67G U80C | 0.06
A2U A47G U60A U67C C71A | 0.1
A2U U26A A47U | 0.5
A2U A15U A65U U66A U67A U72C | 0.15
A2U A15U U43G A45U A47G U78C | 0.26
A2G U41G U72C | 0.28
A2U A21G U26G U31A A35U A56U | 0.05

Variant | self-cleavage
A2U A5G G9A A18U U51C A56U | 0.06
A2G U31C A35G A45U U67A U69A | 0.28
A2G G9C A18G A20G A28G | 0.1
A2G U54C A57G U58A | 0.18
A2G U43C U74C | 0.71
A2U A15G U43C U49C U51A G63C | 0.13
A2U A5G A15G C27U G33C U43C U76C | 0.25
A2U A5U U26C U43A U49C U67C U72C | 0.05
A2U G9A G73A | 0.46
A2U G10U U41C C71A | 0.03
A2G U49A U54G A57G U58C U72A | 0.13
A2U A15U U25C | 0.3
A2G U25C U54C U66C | 0.62
A2G U26C U54A | 0.47
A2G U25C C27A U31A A77G | 0.38
A2G G10A A15G C23G U72A | 0.04
A2U A35G C39U A64G U78A | 1.26
A2G G24A U41G A57G | 0.32
A2U C4G A18G U43C U51C U60A U78C | 0.08
A2G G7U U41C U60A U78C | 0.06
A2U G10U U43C | 0.06
A2G C29U C40U A77G | 0.06
A2G G24U G52C U66C | 0.05
A2U C17U G33C A64G U67A | 0.06

Variant | self-cleavage
A2G G8U G30C | 0.07
A2G G8A A45G U51A | 0.02
A2U A45U U80C | 0.33
A2U G6U C12A A28U A64G | 0.07
A2G C17A U58A U72A | 0.17
A2G C40U U48A U60C | 0.04
A2U A15G U54C A56G U60C C71U | 0.12
A2U A20U U72C | 0.36
A2G C40U U51C | 0.67
A2G U60G A77G | 0.17
A2G G30A U31C G33A U74C | 0.1
A2G G30A U78C | 0.06
A2U G7A A18G U31C U43G C81U | 0.06
A2U A18G U49C U54C | 0.16
A2G G8C A45G U58A | 0.07
A2G G24A C59A U72C | 0.19
A2U A35U A65U | 0.19
A2U A18G U25C A35U U41G A64U U76A | 0.05
A2G G42A A47G U49C | 0.35
A2G C40U U49C | 0.31
A2U U25C G63A U67C U72C A75G | 0.26
A2U U26C U54C U58A U78C | 0.17
A2U A28U A56G | 0.51
